Data from patent US10640563B2, “Anti-B7-H3 antibodies and antibody drug conjugates” (AbbVie Inc., priority 2016, dated 2020).
Changes are numbered by the printed parent chain.

B1: huAb3v2.5-WD (conjugate)
heavy: EVQLVQSGAEVKKPGSSVKVSCKASGYTFSSYWMHWVRQAPGQGLEWIGLIHPESGSTNYNEMFKNRATLTVDRSTSTAYMELSSLRSEDTAVYYCAGGGRLYFDYWGQGTTVTVSSASTKGPSVFPLAPSSKSTSGGTAALGCLVKDYFPEPVTVSWNSGALTSGVHTFPAVLQSSGLYSLSSVVTVPSSSLGTQTYICNVNHKPSNTKVDKKV[letters of human IgG1 Fc with changes omitted]
light: DIVMTQSPLSLPVTPGEPASISCRSSQSLVHSNRDTYLRWYLQKPGQSPQLLIYKVSNRFSGVPDRFSGSGSGTDFTLKISRVEAEDVGVYYCSQSTHVPYTFGGGTKVEIKRTVAAPSVFIFPPSDEQLKSGTASVVCLLNNFYPREAKVQWKVDNALQSGNSQESVTEQDSKDSTYSLSSTLTLSKADYEKHKVYACEVTHQGLSSPVTKSFNRGEC
B2: huAb3v2.6-LB (conjugate)
heavy: EVQLVQSGAEVKKPGSSVKVSCKASGYTFSSYWMHWVRQAPGQGLEWIGLIHPESGSTNYNEMFKNRATLTVDRSTSTAYMELSSLRSEDTAVYYCAGGGRLYFDYWGQGTTVTVSSASTKGPSVFPLAPSSKSTSGGTAALGCLVKDYFPEPVTVSWNSGALTSGVHTFPAVLQSSGLYSLSSVVTVPSSSLGTQTYICNVNHKPSNTKVDKKV[letters of human IgG1 Fc with changes omitted]
light: B1 light with R34Q
B3: huAb3v2.6-SR (conjugate)
heavy: EVQLVQSGAEVKKPGSSVKVSCKASGYTFSSYWMHWVRQAPGQGLEWIGLIHPESGSTNYNEMFKNRATLTVDRSTSTAYMELSSLRSEDTAVYYCAGGGRLYFDYWGQGTTVTVSSASTKGPSVFPLAPSSKSTSGGTAALGCLVKDYFPEPVTVSWNSGALTSGVHTFPAVLQSSGLYSLSSVVTVPSSSLGTQTYICNVNHKPSNTKVDKKV[letters of human IgG1 Fc with changes omitted]
light: B1 light with R34Q
B4: huAb3v2.5-SE (conjugate)
heavy: EVQLVQSGAEVKKPGSSVKVSCKASGYTFSSYWMHWVRQAPGQGLEWIGLIHPESGSTNYNEMFKNRATLTVDRSTSTAYMELSSLRSEDTAVYYCAGGGRLYFDYWGQGTTVTVSSASTKGPSVFPLAPSSKSTSGGTAALGCLVKDYFPEPVTVSWNSGALTSGVHTFPAVLQSSGLYSLSSVVTVPSSSLGTQTYICNVNHKPSNTKVDKKV[letters of human IgG1 Fc with changes omitted]
light: B1 light
B5: huAb3v2.6-KZ (conjugate)
heavy: EVQLVQSGAEVKKPGSSVKVSCKASGYTFSSYWMHWVRQAPGQGLEWIGLIHPESGSTNYNEMFKNRATLTVDRSTSTAYMELSSLRSEDTAVYYCAGGGRLYFDYWGQGTTVTVSSASTKGPSVFPLAPSSKSTSGGTAALGCLVKDYFPEPVTVSWNSGALTSGVHTFPAVLQSSGLYSLSSVVTVPSSSLGTQTYICNVNHKPSNTKVDKKV[letters of human IgG1 Fc with changes omitted]
light: B1 light with R34Q
B6: huAb3v2.5-KZ (conjugate)
heavy: EVQLVQSGAEVKKPGSSVKVSCKASGYTFSSYWMHWVRQAPGQGLEWIGLIHPESGSTNYNEMFKNRATLTVDRSTSTAYMELSSLRSEDTAVYYCAGGGRLYFDYWGQGTTVTVSSASTKGPSVFPLAPSSKSTSGGTAALGCLVKDYFPEPVTVSWNSGALTSGVHTFPAVLQSSGLYSLSSVVTVPSSSLGTQTYICNVNHKPSNTKVDKKV[letters of human IgG1 Fc with changes omitted]
light: B1 light
B7: huAb3v2.6-WD (conjugate)
heavy: EVQLVQSGAEVKKPGSSVKVSCKASGYTFSSYWMHWVRQAPGQGLEWIGLIHPESGSTNYNEMFKNRATLTVDRSTSTAYMELSSLRSEDTAVYYCAGGGRLYFDYWGQGTTVTVSSASTKGPSVFPLAPSSKSTSGGTAALGCLVKDYFPEPVTVSWNSGALTSGVHTFPAVLQSSGLYSLSSVVTVPSSSLGTQTYICNVNHKPSNTKVDKKV[letters of human IgG1 Fc with changes omitted]
light: B1 light with R34Q
B8: huAb3v2.6-ZZ (conjugate)
heavy: EVQLVQSGAEVKKPGSSVKVSCKASGYTFSSYWMHWVRQAPGQGLEWIGLIHPESGSTNYNEMFKNRATLTVDRSTSTAYMELSSLRSEDTAVYYCAGGGRLYFDYWGQGTTVTVSSASTKGPSVFPLAPSSKSTSGGTAALGCLVKDYFPEPVTVSWNSGALTSGVHTFPAVLQSSGLYSLSSVVTVPSSSLGTQTYICNVNHKPSNTKVDKKV[letters of human IgG1 Fc with changes omitted]
light: B1 light with R34Q
B9: huAb3v2.6-YG (conjugate)
heavy: EVQLVQSGAEVKKPGSSVKVSCKASGYTFSSYWMHWVRQAPGQGLEWIGLIHPESGSTNYNEMFKNRATLTVDRSTSTAYMELSSLRSEDTAVYYCAGGGRLYFDYWGQGTTVTVSSASTKGPSVFPLAPSSKSTSGGTAALGCLVKDYFPEPVTVSWNSGALTSGVHTFPAVLQSSGLYSLSSVVTVPSSSLGTQTYICNVNHKPSNTKVDKKV[letters of human IgG1 Fc with changes omitted]
light: B1 light with R34Q
B10: huAb3v2.6-SE (conjugate)
heavy: EVQLVQSGAEVKKPGSSVKVSCKASGYTFSSYWMHWVRQAPGQGLEWIGLIHPESGSTNYNEMFKNRATLTVDRSTSTAYMELSSLRSEDTAVYYCAGGGRLYFDYWGQGTTVTVSSASTKGPSVFPLAPSSKSTSGGTAALGCLVKDYFPEPVTVSWNSGALTSGVHTFPAVLQSSGLYSLSSVVTVPSSSLGTQTYICNVNHKPSNTKVDKKV[letters of human IgG1 Fc with changes omitted]
light: B1 light with R34Q
B11: huAb3v2.5-LB (conjugate)
heavy: EVQLVQSGAEVKKPGSSVKVSCKASGYTFSSYWMHWVRQAPGQGLEWIGLIHPESGSTNYNEMFKNRATLTVDRSTSTAYMELSSLRSEDTAVYYCAGGGRLYFDYWGQGTTVTVSSASTKGPSVFPLAPSSKSTSGGTAALGCLVKDYFPEPVTVSWNSGALTSGVHTFPAVLQSSGLYSLSSVVTVPSSSLGTQTYICNVNHKPSNTKVDKKV[letters of human IgG1 Fc with changes omitted]
light: B1 light
B12: huAb3v2.6-ZT (conjugate)
heavy: EVQLVQSGAEVKKPGSSVKVSCKASGYTFSSYWMHWVRQAPGQGLEWIGLIHPESGSTNYNEMFKNRATLTVDRSTSTAYMELSSLRSEDTAVYYCAGGGRLYFDYWGQGTTVTVSSASTKGPSVFPLAPSSKSTSGGTAALGCLVKDYFPEPVTVSWNSGALTSGVHTFPAVLQSSGLYSLSSVVTVPSSSLGTQTYICNVNHKPSNTKVDKKV[letters of human IgG1 Fc with changes omitted]
light: B1 light with R34Q

Experiment: Aggregation of conjugates by SEC
Format: physicochemical
Settings: ADC as conjugated (Method A, E or G)

Molecule | % agg by SEC [%]
B1 | 11.5
B2 | 27.2
B3 | 48.2
B4 | 10.6
B5 | 26.1
B6 | 24.5
B7 | 12.4
B8 | 70.7
B9 | 9.9
B10 | 11.8
B11 | 24.4
B12 | 21.6

Experiment: DAR of ADC by LC-MS
Settings: ADC as conjugated (Method A, E or G)
Experimental: The DAR and percentage aggregation of ADCs synthesized were determined by LC-MS and size exclusion chromatography (SEC), respectively.
LC-MS analysis was performed using an Agilent 1100 HPLC system interfaced to an Agilent LC/MSD TOF 6220 ESI mass spectrometer. The ADC was reduced with 5 mM (final concentration) Bond-Breaker® TCEP solution (Thermo Scientific, Rockford, Ill.), loaded onto a Protein Microtrap (Michrom Bioresorces, Auburn, Calif.) desalting cartridge, and eluted with a gradient of 10% B to 75% B in 0.2 minutes at ambient temperature. Mobile phase A was H2O with 0.1% formic acid (FA), mobile phase B was acetonitrile with 0.1% FA, and the flow rate was 0.2 mL/min. Electrospray-ionization time-of-flight mass spectra of the co-eluting light and heavy chains were acquired using Agilent MassHunter™ acquisition software. The extracted intensity vs. m/z spectrum was deconvoluted using the Maximum Entropy feature of MassHunter software to determine the mass of each reduced antibody fragment. DAR was calculated from the deconvoluted spectrum by summing intensities of the naked and modified peaks for the light chain and heavy chain, normalized by multiplying intensity by the number of drugs attached. The summed, normalized intensities were divided by the sum of the intensities, and the summing results for two light chains and two heavy chains produced a final average DAR value for the full ADC.

Molecule | DAR by MS
B1 | 2.8
B3 | 2.5
B4 | 3.7
B5 | 3.5
B6 | 2.6
B7 | 3.1
B8 | 1.2
B9 | 3.7
B10 | 3.6
B11 | 2.2
B12 | 1.7
